In all, about 150,000 compounds went through this assay and about 540 (0.36%) showed an effect of 50% or more. The list shows a part of the results.

This assay concerns Plasmodium falciparum. Description: Primary screen in NF54 nanoGlo assay, in single point, at 2uM, 72h; a lower Z score goes with more inhibition. In kind it is functional, Erythrocyte. As to conditions: timepoint 72 hour.
As usually defined, the % Inhibition is the change of the read-out against control, counted positive when it falls. For `COc1cc(NC(=O)c2ccc(-n3nc(OCc4ccc(Cl)cc4)ccc3=O)cc2)cc(OC)c1`, the “% Inhibition” value is reported as -3% and the Z score is given as 0.61.

Regarding `O=C(c1cn2cc(Cl)ccc2n1)N1CCN(Cc2ccc3c(c2)OCO3)CC1`, the “% Inhibition” value was -8% and the Z score is 0.83.

For `Cc1c(Cl)cccc1NC(=O)[C@H](C)n1cnc2nc3c(cc2c1=O)CCCC3`, the “% Inhibition” value is on record as -7% and the Z score came to 0.85.

Regarding `CO[C@@H]1CCC[C@@H]2CN(C(=O)NCCc3ccccc3)C[C@@H]21`, the “% Inhibition” value is given as -3% and the Z score is listed as 0.27.

With `FC(F)c1cncc(-c2ncccc2N2CCCCC2)c1`, the “% Inhibition” value is -7% and the Z score is reported as 0.71.

For the molecule `O=C(NC(=O)c1ccc(Cl)cc1)NC1(C(F)(F)F)OCCO1`, the “% Inhibition” value is 3% and the Z score is given as -0.56.

On to `CCOc1ccccc1NC(=O)c1nc2c(=O)n(Cc3cccc(F)c3)c3cc(C)ccc3n2n1`, for which the “% Inhibition” value is listed as -2% and the Z score is 0.27.

`CCc1cnccc1C(=O)NCC(=O)C(C)C`: the “% Inhibition” value is given as 3% and the Z score is reported as -0.48.

For `O=C1CCN(C(=O)CCCc2ccc(Cl)c(Cl)c2)CCN1`, the “% Inhibition” value is given as -6% and the Z score worked out at 0.73.

`Cc1ccccc1Cn1c(C)c(N2CCOCC2)c(C)c1C(=O)NCc1ccc(F)cc1`: the “% Inhibition” value was -1% and the Z score is on record as 0.18.

With `Cc1oc(C(C)C)cc1C(=O)N1CC[C@](C)(O)[C@H](O)C1`, the “% Inhibition” value is recorded as -18% and the Z score is 1.9.

Take `O=C1NC[C@@H](C(=O)NCc2ccc(OC3CCCCC3)nc2)N1`: the “% Inhibition” value amounted to 0% and the Z score is -0.01.

On to `Cc1ccnc(CNC(=O)c2oc(C)nc2C)c1`, for which the “% Inhibition” value is recorded as 8% and the Z score is on record as -0.74.

Take `CC(CCc1ccccc1)NC(=O)C1COc2ccccc2O1` (stereo unspecified): the “% Inhibition” value is given as -14% and the Z score worked out at 2.63.

`CCc1ccc(NC(=O)Cn2nc3c(Oc4cc(C)cc(C)c4)nc4ccccc4n3c2=O)cc1`: the “% Inhibition” value is -10% and the Z score is on record as 1.47.

In the case of `CC(C(=O)c1ccccc1)C1(O)C(=O)N(CN2CCOCC2)c2ccccc21` (stereo unspecified), the “% Inhibition” value is given as 7% and the Z score was -0.82.

With `COc1ccc(O)c([C@H](C)NCCCCn2ccnc2C)c1`, the “% Inhibition” value was -8% and the Z score is 0.84.

In the case of `CC[C@H](C)NC(=O)C1CCN(S(=O)(=O)c2cc(-c3noc(C)n3)ccc2Cl)CC1`, the “% Inhibition” value was -10% and the Z score is 1.27.

Consider `c1ccc2c(c1)CC(N1CCC(c3nnc[nH]3)CC1)C2`, for which the “% Inhibition” value is given as -12% and the Z score is recorded as 1.09.

Regarding `O=C([C@@H]1CC=CCC1)N1CC=C(c2ccccc2)CC1`, the “% Inhibition” value turned out to be 2% and the Z score is given as -0.32.

On to `Cc1cc(N2CCC[C@@]3(CCC(=O)N(CCc4c[nH]cn4)C3)C2)ccn1`, for which the “% Inhibition” value stood at 1% and the Z score is -0.12.

As to `O=C(Cc1nnc(-c2cnccn2)o1)NCc1ccccc1`, the “% Inhibition” value was -11% and the Z score is given as 1.14.

`Cc1ccc([C@H]2CN(C(=O)CCn3ccc(C)n3)C[C@@H]2N(C)C)cc1`: the “% Inhibition” value is given as 11% and the Z score is -0.98.

The values are drawn from ChEMBL document CHEMBL4888484, “Replenishing the malaria drug discovery pipeline: Screening and hit evaluation of the MMV Hit Generation Library 1 (HGL1) against asexual blood stage Plasmodium falciparum ,using a nano luciferase reporter read-out” (2022).
